Several values for one entry are separate records, joined by “and”; a condition that tells them apart may be missing. Identical values can stand only once. The whole screen tested about 140,000 compounds, of which about 240 (0.17%) were called active. The inconclusive results got no clear call from the source; some entries with a clear call stand among them for comparison. The call rests on the fitted dose curve; in most records, active means well fitted inhibition curve with a large enough effect; inconclusive means small, poorly fitted or top-dose-only effect; inactive means no such curve, though single readings can be large or run the other way. Potencies beside an inconclusive call are fits to weak or partial responses and may not hold up.
test: Primary qHTS assay for inhibitors of alpha-synuclein gene (SNCA) expression; details: HEK-293 SNCA-luciferase knock-in, luminescence, 24 h; activity change, negative = inhibition: at 57.2 µM (top of the series) unless noted; further: nearly all actives have a fitted effect of over 45% in size;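 on activity change, negative = inhibition: plate controls were DMSO cells for no effect and cell-free wells for full effect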
Potency means the concentration at half of the fitted maximal effect; tags describe the fitted curve by direction and shape.

Potency, inconclusive:
O=C(C1CCCN1C(=O)C1CCCC1)N1CCCC(c2nc3ncccc3[nH]2)C1 (stereo not drawn) 28.2 µM [inhibitor, partial curve, poor fit], COc1ccccc1NC(=O)C1=C(C)Nc2ncnn2C1c1ccccc1C(=O)O (stereo not drawn) 31.6 µM [inhibitor, partial curve, poor fit], CCOC(=O)C1=C(C)N=C2SC=C(CC(=O)Nc3cccc(OC)c3)N2C1c1cccc(OC)c1 (stereo not drawn) 1.58 µM [inhibitor, full curve], COc1ccc(N2CC(c3noc(-c4ccc(C(C)(C)C)cc4)n3)CC2=O)cc1OC (stereo not drawn) 31.6 µM [inhibitor, single point], O=C(c1cccs1)N1CCCc2cc(NS(=O)(=O)c3ccc(Br)cc3)ccc21 17.8 µM [inhibitor, single point], CC1=C[C@@H](CNC(=O)c2ccccc2)[C@H](C(C)C)C[C@H]1Cc1nc2ccc(C)cc2[nH]1 4.47 µM [inhibitor, full curve], Cc1ccc(-c2nnc(C3CN(C(=O)CC(C)C)CC34CCOCC4)o2)cc1 (stereo not drawn) 6.31 µM [inhibitor, single point], O=C(CCC1CCCC1)NC1CCN(c2cn[nH]c(=O)c2)CC1 39.8 µM [inhibitor, single point], COc1cc(NS(=O)(=O)c2cc(Br)cc3c2N(C(C)=O)C(C)C3)cc(OC)c1 (stereo not drawn) 39.8 µM [inhibitor, single point], COc1cccc(CNC(=O)Cn2c(=O)cc(C)c3c(C)nn(C)c32)c1OC 3.98 µM [inhibitor, single point], O=[S+]([O-])(c1ccccc1)N1CC2(COCCN(Cc3cc(F)ccc3F)C2)C1 44.7 µM [inhibitor, single point], CC1=C[C@@H](CO)[C@H](C(C)C)C[C@H]1Cc1nnc(Cc2c[nH]c3ccccc23)o1 17.8 µM [inhibitor, single point], COc1cccc(N2C(=O)NC(=NC3CCCCC3)C23CCN(Cc2ccccc2)C3)c1 (stereo not drawn) 3.16 µM [inhibitor, full curve, poor fit], CC(C)CCN1CCC(N2CCN(C(=O)c3ccc(F)cc3)CC2)C1=O (stereo not drawn) 39.8 µM [inhibitor, partial curve, poor fit], COc1ccc(OCc2ccc(-c3nc(C#N)c(NCc4ccc(F)cc4)o3)o2)cc1 17.8 µM [inhibitor, single point], COCCNC(=O)[C@@H]1C[C@@H](O)CN1C1CCN(C(=O)CCc2ccccc2)CC1 3.55 µM [inhibitor, full curve, poor fit], Cc1ccc(NC(=O)Cn2c(-c3ccccc3)nc(C)c(CCO)c2=O)cc1Cl 22.4 µM [inhibitor, single point], COc1cc([C@@H]2c3cc4c(cc3[C@@H](O[C@@H]3O[C@@H]5CO[C@@H](c6cccs6)O[C@@H]5[C@H](O)[C@@H]3O)[C@H]3COC(=O)[C@H]23)OCO4)cc(OC)c1O 3.41 µM [inhibitor, full curve, poor fit], O=C(NC1CCN(Cc2cccc(-c3ccc(F)c(F)c3)c2)CC1)c1ccc(Cl)cc1 39.8 µM [inhibitor, single point], O=C(c1ccc2c(c1)N(Cc1ccccc1F)C(=O)c1ccccc1S2=O)N1CCC(Cc2ccccc2)CC1 (stereo not drawn) 39.8 µM [inhibitor, single point], C[S+](=O)([O-])NCCn1ccc2cc(OC3CCN(c4ncccn4)CC3)cnc21 14.1 µM [inhibitor, partial curve, poor fit], Cc1ccc2nc(C3CCN(Cc4cccs4)CC3)[nH]c(=O)c2c1 10 µM [inhibitor, single point] and 10 µM [inhibitor, partial curve]

Activity change, negative = inhibition, inactive:
FC(F)(F)c1ccc(O[C@H]2COCCN(CC3CCCC3)C2)cc1 7.24% [at 87.6 µM], Cc1cccc(-c2nc(Cn3c(-c4ccccc4)nc(C)c(CCO)c3=O)c(C)o2)c1 -17.1%, COc1ccccc1Nc1ccnc(N2CCC(C(=O)NCc3ccc(F)cc3)CC2)n1 3.06%, COc1cccc(-c2cc(C3CCN(S(=O)(=O)c4ccc(C#N)cc4)CC3)[nH]n2)c1 5.07%, O=C(c1ccc(Cl)cc1Cl)N1CCN(c2cc(-c3ccccc3)[nH]n2)CC1 -14.9%, COCCn1c2c(c(=O)n1-c1ccccc1)CCN(C(=O)c1cc3ccccc3n1C)C2 0.824% [at 87.6 µM], CN(C)c1cccc(C(=O)N2CCCC(n3cc(-c4nc(-c5ccccc5)no4)nn3)C2)c1 (stereo not drawn) 69.2%, COc1ccc(C(C)NC(=O)CN(c2cc(OC)ccc2OC)S(=O)(=O)c2ccccc2)cc1 (stereo not drawn) -10.4%, COc1ccc(-c2ccc3ncc(Nc4ccncc4)n3n2)cn1 3.07% [at 87.6 µM], CCN(CC)C(=O)CCC1CCN(C(=O)c2ccccc2F)CC1 61.5%, O=C(CCc1ccc2c(c1)CN(C(=O)c1cccs1)CCO2)NCC1CC1 12.6%, Cc1cc(F)ccc1NC(=O)CN1C(=O)NC2(CCC(C(C)(C)C)CC2)C1=O (stereo not drawn) 2.62%, CCC1CN(Cc2nc(CCOC)no2)CCC(=O)N1Cc1ccccc1 (stereo not drawn) -23.4%, CCOC(=O)CNC(=O)c1cc(-c2ccc(Cl)cc2)cn1C -28%, COc1ccc(OC)c(CN2CCC3(COC(=O)N3Cc3ccccc3)C2)c1 (stereo not drawn) -14.4% [at 87.6 µM], Cc1ccc(-c2cc(C(=O)N3CCC(c4cc(CC(=O)O)[nH]n4)CC3)n[nH]2)o1 2.84%, COc1ccc(N2Cc3c(NCC4CCCCC4)ncnc3N(C)CC2=O)cc1 -13.8%, OCCN1CCN(c2ncnc3c2cnn3-c2cccc(Cl)c2)CC1 141%, CCCC(=O)N1Cc2ccccc2CC2(CCCCN2Cc2cccnc2)C1 (stereo not drawn) 6.64%, O=C(c1ccc2c(c1)OCO2)N1CCC2(CC1)N=C(c1ccccc1)NO2 40.1%, O=C(NCc1cccnc1)c1nc(-c2ccc(Cl)nc2)c2ccccn12 19.8%
